Measured values reported in PMC8368002, “Crystal structure of the INTS3/INTS6 complex reveals the functional importance of INTS3 dimerization in DSB repair” (Cell Discovery, 2020).
No constants are given. Whether binding was seen depends on the method and setting. For some of these results: In cells and extracts the contact can be indirect. Some binding calls cover weakened binding; strength is not graded here. One block for each substance: values may come before it.

Sequences of proteins named here, by UniProt entry; tags and fusion partners are left off. A change or cut given only in a name is not applied to a line headed by its entry. A line that says so, or that is headed by a name, gives the form on record, which may keep a tag or linker.
UniProt Q68E01: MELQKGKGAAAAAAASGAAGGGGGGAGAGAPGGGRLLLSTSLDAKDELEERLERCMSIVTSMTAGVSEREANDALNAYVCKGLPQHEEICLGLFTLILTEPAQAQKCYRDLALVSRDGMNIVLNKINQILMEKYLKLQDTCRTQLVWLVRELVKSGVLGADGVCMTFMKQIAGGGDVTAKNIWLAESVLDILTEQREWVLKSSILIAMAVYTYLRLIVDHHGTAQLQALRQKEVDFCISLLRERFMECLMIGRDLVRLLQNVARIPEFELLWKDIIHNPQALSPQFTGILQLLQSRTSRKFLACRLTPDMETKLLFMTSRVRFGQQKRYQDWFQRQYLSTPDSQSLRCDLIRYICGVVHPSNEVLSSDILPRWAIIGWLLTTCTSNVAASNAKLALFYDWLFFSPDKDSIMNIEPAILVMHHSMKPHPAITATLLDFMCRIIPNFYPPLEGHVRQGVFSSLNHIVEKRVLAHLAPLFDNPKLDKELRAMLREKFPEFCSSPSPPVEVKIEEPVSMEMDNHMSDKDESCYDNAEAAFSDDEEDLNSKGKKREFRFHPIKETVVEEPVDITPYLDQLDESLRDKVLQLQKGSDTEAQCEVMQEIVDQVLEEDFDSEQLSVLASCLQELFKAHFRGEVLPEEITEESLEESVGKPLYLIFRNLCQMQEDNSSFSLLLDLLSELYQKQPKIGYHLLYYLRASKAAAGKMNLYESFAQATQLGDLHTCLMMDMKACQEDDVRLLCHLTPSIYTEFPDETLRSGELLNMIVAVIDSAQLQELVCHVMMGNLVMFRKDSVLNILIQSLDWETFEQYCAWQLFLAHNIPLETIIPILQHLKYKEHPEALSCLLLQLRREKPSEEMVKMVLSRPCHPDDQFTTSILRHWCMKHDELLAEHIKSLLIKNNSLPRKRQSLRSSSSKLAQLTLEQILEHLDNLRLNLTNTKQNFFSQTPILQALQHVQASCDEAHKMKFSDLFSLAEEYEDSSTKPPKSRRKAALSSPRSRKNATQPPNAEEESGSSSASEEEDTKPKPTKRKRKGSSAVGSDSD
UniProt Q9UL03: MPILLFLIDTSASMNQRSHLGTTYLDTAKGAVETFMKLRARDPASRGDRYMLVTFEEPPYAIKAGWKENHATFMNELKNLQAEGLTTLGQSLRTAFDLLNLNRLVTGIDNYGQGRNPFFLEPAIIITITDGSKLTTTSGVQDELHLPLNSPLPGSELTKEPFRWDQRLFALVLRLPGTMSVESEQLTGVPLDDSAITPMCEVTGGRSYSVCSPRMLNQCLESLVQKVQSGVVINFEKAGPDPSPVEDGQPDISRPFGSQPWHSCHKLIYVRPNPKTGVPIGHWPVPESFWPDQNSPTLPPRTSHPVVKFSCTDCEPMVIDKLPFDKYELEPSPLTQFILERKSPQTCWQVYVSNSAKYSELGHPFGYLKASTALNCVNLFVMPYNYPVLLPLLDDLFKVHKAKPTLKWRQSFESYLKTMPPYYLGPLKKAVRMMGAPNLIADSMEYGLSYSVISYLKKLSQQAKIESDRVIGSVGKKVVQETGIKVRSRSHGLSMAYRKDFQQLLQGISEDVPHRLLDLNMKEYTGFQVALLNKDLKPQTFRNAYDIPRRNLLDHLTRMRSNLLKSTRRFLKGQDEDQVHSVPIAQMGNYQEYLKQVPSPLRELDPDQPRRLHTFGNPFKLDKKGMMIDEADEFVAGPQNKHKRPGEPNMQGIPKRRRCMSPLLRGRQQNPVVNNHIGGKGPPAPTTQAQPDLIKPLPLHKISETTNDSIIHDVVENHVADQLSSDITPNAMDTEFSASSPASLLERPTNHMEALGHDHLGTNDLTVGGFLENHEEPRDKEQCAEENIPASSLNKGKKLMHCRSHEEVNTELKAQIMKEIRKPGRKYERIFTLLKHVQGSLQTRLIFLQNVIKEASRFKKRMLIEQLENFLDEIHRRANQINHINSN
INTS6c F858A/K859A (Q9UL03, form named): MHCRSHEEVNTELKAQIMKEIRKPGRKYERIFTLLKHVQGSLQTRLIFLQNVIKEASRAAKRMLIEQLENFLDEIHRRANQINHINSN

Columns and labels:
INTS3(1−500) (human) = INTS3(1−500) (human) (UniProt Q68E01); experiment: SEC; analytical size-exclusion chromatography of co-expressed and purified INTS3-hSSB1 complexes (Supplementary Fig. S2); both purified
[1] = molecular target: INTS3c, wild type, as used in the GST pull-down (human) (UniProt Q68E01); experiment: pull-down; GST pull-down of INTS3c and INTS6c, wild type or mutants, each mutant against its wild-type partner; which partner carried GST and the conditions are not told; both purified
[2] = molecular target: SFB-tagged wild-type full-length INTS3 (human) (UniProt Q68E01); experiment: co-IP; HEK293T cells transfected with Myc-tagged and SFB-tagged full-length proteins; lysate with anti-Flag antibody and Protein A Sepharose 2 h at 4 °C, washed with NTEN buffer; blots with anti-Flag and anti-Myc
[3] = molecular target: SFB-tagged full-length INTS3 F806A/E839A (human) (UniProt Q68E01); experiment: as above
[4] = molecular target: SFB-tagged full-length INTS3 V767A/D769A (human) (UniProt Q68E01); experiment: as above
[5] = molecular target: full-length INTS6 F858A/K859A (human) (UniProt Q9UL03); experiment: as above
[6] = molecular target: full-length wild-type INTS6 of the co-immunoprecipitation of Fig. 2e (human) (UniProt Q9UL03); experiment: as above

binding (INTS3(1−500) (human)): no binding
Substance: INTS3(1−500) (from UniProt Q68E01 1-500) (domain or fragment)

binding [1]: no binding
Substance: INTS6c F858A/K859A (from UniProt Q9UL03 800-887) (domain or fragment)

binding [2]: binds
binding [3]: binds weakly
binding [4]: binds weakly
Substance: Myc-tagged full-length INTS6 (from UniProt Q9UL03 1-887)

binding [5]: binds weakly
binding [6]: binds
Substance: full-length INTS3 of the co-immunoprecipitation of Fig. 2e (from UniProt Q68E01 1-1043)
